Measurements reported in ChEMBL document CHEMBL4888484, “Replenishing the malaria drug discovery pipeline: Screening and hit evaluation of the MMV Hit Generation Library 1 (HGL1) against asexual blood stage Plasmodium falciparum ,using a nano luciferase reporter read-out” (2022).
About 540 (0.36%) of roughly 150,000 compounds showed an effect of 50% or more. Some of the results follow.

test system: Plasmodium falciparum; assay: Primary screen in NF54 nanoGlo assay, in single point, at 2uM, 72h; a lower Z score goes with more inhibition; format: functional, Erythrocyte; conditions: timepoint 72 hour

**Q.** How did the “% Inhibition” value turn out when C[C@H](NC(=O)c1cccs1)C(C)(C)C was run?
**A.** 1%

**Q.** And the Z score?
**A.** -0.16

**Q.** Which “% Inhibition” value does the source give for COc1cc(Cc2nnc(C(=O)NCCc3ccccc3)o2)cc(OC)c1OC here?
**A.** -2%

**Q.** What about the Z score of the same compound?
**A.** 0.38

**Q.** For COc1ccc(CN2CCN(c3ccc(NS(=O)(=O)c4ccc(F)cc4)cn3)CC2)cc1, which “% Inhibition” value is on record?
**A.** 1%

**Q.** What about the Z score of the same compound?
**A.** -0.19

**Q.** How did the “% Inhibition” value turn out when CCOC(=O)c1ncn(C2CCN(C(=O)Nc3ccc(OCC)cc3)CC2)c1N was run?
**A.** -10%

**Q.** What about the Z score of the same compound?
**A.** 1.14

**Q.** CN1C(=O)C[C@H](C(=O)N2CC(CC(F)F)C2)[C@H]1c1nccn1C was tested. Which “% Inhibition” value did it give?
**A.** -3%

**Q.** What about the Z score of the same compound?
**A.** 0.53

**Q.** What does the source list for Cc1cc(C)cc(/N=C(/NC(=O)c2cccc(Br)c2)N2CCN(C3CCCCC3)CC2)c1?
**A.** % Inhibition: -1%; Z score: 0.2

**Q.** How did the “% Inhibition” value turn out when CCCOc1cncc(-c2ccc3c(c2)NC(=O)C32CC2)c1 was run?
**A.** -2%

**Q.** And the Z score?
**A.** 0.28

**Q.** Which “% Inhibition” value does the source give for Cc1cc(Br)c2[nH]nc(NC(=O)[C@@H]3COCCO3)c2c1 here?
**A.** 5%

**Q.** What about the Z score of the same compound?
**A.** -0.94

**Q.** What does the source list for O=S1(=O)CC[C@H](CNS(=O)(=O)c2ccc(F)cc2)C1?
**A.** % Inhibition: -3%; Z score: 0.39

**Q.** With CCCN(C(=O)CN1CCN(CC)CC1)[C@H]1CCCC[C@@H]1O as the compound, how does the “% Inhibition” value read?
**A.** -7%

**Q.** And the Z score?
**A.** 1.5

**Q.** Which results are given for Cc1cc(C)nc(NC(=O)N(C)CC2(O)CCCC2)c1?
**A.** % Inhibition: -6%; Z score: 1.1

**Q.** What does the source list for COCCn1c(CO)nnc1[C@H]1C[C@@H](NC(=O)C2(C)CCCCC2)C1?
**A.** % Inhibition: -10%; Z score: 2

**Q.** Which results are given for O=C(O)c1ccccc1CN1C[C@@H]2CC[C@H]1CN(C1CCOCC1)C2?
**A.** % Inhibition: 0%; Z score: 0.03

**Q.** How did the “% Inhibition” value turn out when CNC(=O)c1[nH]nc2c1CN(CCOc1ccc(C)cc1OC)CC2 was run?
**A.** -13%

**Q.** What about the Z score of the same compound?
**A.** 1.39

**Q.** Which “% Inhibition” value does the source give for Cc1ccc(CNc2nc3ccccc3c3nc(CCc4c(C)n[nH]c4C)nn23)cc1 here?
**A.** -6%

**Q.** What about the Z score of the same compound?
**A.** 0.96

**Q.** For COc1ccc(CN2CC[C@@H]3OCc4cnnn4[C@@H]3C2)cc1, which “% Inhibition” value is on record?
**A.** -14%

**Q.** And the Z score?
**A.** 1.34

**Q.** With Cc1ccc(N(C)C(=O)CN)cc1Cl as the compound, how does the “% Inhibition” value read?
**A.** -15%

**Q.** And the Z score?
**A.** 2.81

**Q.** For N#Cc1ccccc1OCCN1CCc2cncnc2C1, which “% Inhibition” value is on record?
**A.** 3%

**Q.** What about the Z score of the same compound?
**A.** -0.52

**Q.** C=CCNC(=O)C(=O)NCCc1ccc(F)cc1 was tested. Which “% Inhibition” value did it give?
**A.** -7%

**Q.** And the Z score?
**A.** 0.91

**Q.** Which results are given for CN(CCNC(=O)c1ccc2[nH]c3c(c2c1)CN(C(=O)C1CCC1)CC3)C1CCCCC1?
**A.** % Inhibition: 3%; Z score: -0.39

**Q.** CCS(=O)(=O)N(CCN1CCCCC1)C1CN(C(=O)c2ccncc2)C1 was tested. Which “% Inhibition” value did it give?
**A.** 5%

**Q.** And the Z score?
**A.** -0.73

**Q.** Which results are given for CC(C)Nc1ccc(C(F)(F)F)cc1N?
**A.** % Inhibition: -3%; Z score: 0.53

**Q.** Cc1ccc2c(c1)CCCN2C(=O)[C@@H]1COc2ccccc2O1 was tested. Which “% Inhibition” value did it give?
**A.** 5%

**Q.** And the Z score?
**A.** -0.67

**Q.** How did the “% Inhibition” value turn out when CC(C)c1ccc(C#N)c(-c2ccc(C(=O)N3CCC(F)(F)CC3)cc2)n1 was run?
**A.** -8%

**Q.** And the Z score?
**A.** 1.43

**Q.** What does the source list for CCc1ccc(C(=O)N(C)Cc2cc(C(C)C)on2)[nH]1?
**A.** % Inhibition: -2%; Z score: 0.24

**Q.** Which “% Inhibition” value does the source give for COc1ccc(Cc2n[nH]c(NC(=O)CCNc3nc(C)cc(C)n3)n2)cc1 here?
**A.** 2%

**Q.** What about the Z score of the same compound?
**A.** -0.31

**Q.** CCOC(=O)C1=CN(Cc2ccc(OC)cc2)S(=O)(=O)N=C1c1ccccc1 was tested. Which “% Inhibition” value did it give?
**A.** -14%

**Q.** What about the Z score of the same compound?
**A.** 1.56

**Q.** For O=C(NCCn1ccc(-c2ccsc2)n1)c1cccnc1, which “% Inhibition” value is on record?
**A.** -8%

**Q.** And the Z score?
**A.** 1.63

**Q.** How did the “% Inhibition” value turn out when O=C(Nc1cc(S(=O)(=O)N2CCOCC2)ccc1N1CCCC1)c1ccc(-n2cccn2)nc1 was run?
**A.** -13%

**Q.** And the Z score?
**A.** 2.45

**Q.** With CC(C)(C)OC(=O)N1CCN(C2CCC(NC(=O)c3cc(F)ccc3F)CC2)CC1 (centres undefined) as the compound, how does the “% Inhibition” value read?
**A.** -11%

**Q.** And the Z score?
**A.** 1.25

**Q.** With COC1CCCC(C(=O)NCC2CCC3(CCOCC3)C2O)C1 (centres undefined) as the compound, how does the “% Inhibition” value read?
**A.** -3%

**Q.** What about the Z score of the same compound?
**A.** 0.27

**Q.** What does the source list for C[C@@H](c1cc(-c2ccccc2)[nH]n1)N(C)C(=O)C1CCOCC1?
**A.** % Inhibition: -11%; Z score: 1.41

**Q.** How did the “% Inhibition” value turn out when CC(C)n1ccnc1CNC(=O)N1CCC[C@@H]1C(N)=O was run?
**A.** 1%

**Q.** What about the Z score of the same compound?
**A.** -0.2

**Q.** For CC(C)COC[C@@H](O)CN(Cc1c(-c2ccccc2)noc1N1CCOCC1)C(C)C, which “% Inhibition” value is on record?
**A.** 19%

**Q.** And the Z score?
**A.** -3

**Q.** CS(=O)(=O)N(CC(=O)N1CC(=O)Nc2ccccc21)c1ccc(C(F)(F)F)cc1 was tested. Which “% Inhibition” value did it give?
**A.** -19%

**Q.** And the Z score?
**A.** 3.19

**Q.** For O=C(C1=CCC1)N1C[C@H](NC(=O)C(F)(F)F)CC[C@H]1C(F)(F)F, which “% Inhibition” value is on record?
**A.** -2%

**Q.** What about the Z score of the same compound?
**A.** 0.35

**Q.** Which “% Inhibition” value does the source give for C=CCCC(=O)N1CCC(F)(F)[C@@H](C)C1 here?
**A.** -9%

**Q.** And the Z score?
**A.** 0.88

**Q.** Which “% Inhibition” value does the source give for Oc1ccc([C@@H](O)CNCc2cc(O)c3cccc(Cl)c3n2)cc1 here?
**A.** 6%

**Q.** What about the Z score of the same compound?
**A.** -0.84

**Q.** With CN(C)Cc1ccoc1C(=O)NCc1cnc2nccn2c1 as the compound, how does the “% Inhibition” value read?
**A.** -7%

**Q.** And the Z score?
**A.** 0.97

**Q.** Which results are given for COC(=O)C[C@](C)(NCc1ccccc1F)c1ccncc1?
**A.** % Inhibition: 2%; Z score: -0.17

**Q.** What does the source list for CN1CCN([C@H]2CCCCN(C(=O)Nc3nccs3)C2)CC1?
**A.** % Inhibition: -3%; Z score: 0.52

**Q.** How did the “% Inhibition” value turn out when O=S(=O)(Nc1ccc([C@H]2CCOC2)cc1)C1CC1 was run?
**A.** 14%

**Q.** What about the Z score of the same compound?
**A.** -1.62
